Source: patent US20250236654A1, “C-TYPE NATRIURETIC PEPTIDE ENGRAFTED ANTIBODIES” (Bayer Aktiengesellschaft, priority 2018, published 2025)

T1: insulin degrading enzyme (IDE) (Rattus norvegicus, UniProt P35559)
T1 construct: purchased Merck 407241-50UG
T1 sequence (P35559 1-1019): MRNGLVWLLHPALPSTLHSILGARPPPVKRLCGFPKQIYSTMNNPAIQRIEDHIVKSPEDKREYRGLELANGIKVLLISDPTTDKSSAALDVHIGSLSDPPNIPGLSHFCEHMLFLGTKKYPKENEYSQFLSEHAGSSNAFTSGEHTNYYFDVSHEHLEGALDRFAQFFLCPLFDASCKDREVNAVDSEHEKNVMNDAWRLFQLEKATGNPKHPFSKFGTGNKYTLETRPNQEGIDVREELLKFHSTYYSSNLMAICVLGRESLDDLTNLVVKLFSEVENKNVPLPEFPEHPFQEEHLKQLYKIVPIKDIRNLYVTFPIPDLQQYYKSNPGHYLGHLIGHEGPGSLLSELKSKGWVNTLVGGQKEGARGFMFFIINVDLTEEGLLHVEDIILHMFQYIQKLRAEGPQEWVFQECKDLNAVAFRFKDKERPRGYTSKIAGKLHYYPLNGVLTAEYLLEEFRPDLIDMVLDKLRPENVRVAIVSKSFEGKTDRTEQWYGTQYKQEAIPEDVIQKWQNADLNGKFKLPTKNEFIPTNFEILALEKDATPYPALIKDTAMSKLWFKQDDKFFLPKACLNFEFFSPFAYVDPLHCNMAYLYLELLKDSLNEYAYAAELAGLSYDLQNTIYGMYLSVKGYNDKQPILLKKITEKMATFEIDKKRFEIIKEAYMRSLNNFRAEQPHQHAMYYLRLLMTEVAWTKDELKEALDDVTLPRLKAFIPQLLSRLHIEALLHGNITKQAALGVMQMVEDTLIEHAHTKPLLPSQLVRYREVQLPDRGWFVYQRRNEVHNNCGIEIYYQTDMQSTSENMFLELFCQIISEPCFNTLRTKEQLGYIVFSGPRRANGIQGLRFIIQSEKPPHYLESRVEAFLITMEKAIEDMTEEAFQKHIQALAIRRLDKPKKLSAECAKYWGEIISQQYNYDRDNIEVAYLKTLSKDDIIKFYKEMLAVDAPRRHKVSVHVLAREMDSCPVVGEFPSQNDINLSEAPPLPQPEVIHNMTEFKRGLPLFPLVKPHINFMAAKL

T2: human NPRA (hNPRA) (Homo sapiens, UniProt P16066)
T2 construct: expressed in transfected cells
T2 sequence (P16066 33-1061): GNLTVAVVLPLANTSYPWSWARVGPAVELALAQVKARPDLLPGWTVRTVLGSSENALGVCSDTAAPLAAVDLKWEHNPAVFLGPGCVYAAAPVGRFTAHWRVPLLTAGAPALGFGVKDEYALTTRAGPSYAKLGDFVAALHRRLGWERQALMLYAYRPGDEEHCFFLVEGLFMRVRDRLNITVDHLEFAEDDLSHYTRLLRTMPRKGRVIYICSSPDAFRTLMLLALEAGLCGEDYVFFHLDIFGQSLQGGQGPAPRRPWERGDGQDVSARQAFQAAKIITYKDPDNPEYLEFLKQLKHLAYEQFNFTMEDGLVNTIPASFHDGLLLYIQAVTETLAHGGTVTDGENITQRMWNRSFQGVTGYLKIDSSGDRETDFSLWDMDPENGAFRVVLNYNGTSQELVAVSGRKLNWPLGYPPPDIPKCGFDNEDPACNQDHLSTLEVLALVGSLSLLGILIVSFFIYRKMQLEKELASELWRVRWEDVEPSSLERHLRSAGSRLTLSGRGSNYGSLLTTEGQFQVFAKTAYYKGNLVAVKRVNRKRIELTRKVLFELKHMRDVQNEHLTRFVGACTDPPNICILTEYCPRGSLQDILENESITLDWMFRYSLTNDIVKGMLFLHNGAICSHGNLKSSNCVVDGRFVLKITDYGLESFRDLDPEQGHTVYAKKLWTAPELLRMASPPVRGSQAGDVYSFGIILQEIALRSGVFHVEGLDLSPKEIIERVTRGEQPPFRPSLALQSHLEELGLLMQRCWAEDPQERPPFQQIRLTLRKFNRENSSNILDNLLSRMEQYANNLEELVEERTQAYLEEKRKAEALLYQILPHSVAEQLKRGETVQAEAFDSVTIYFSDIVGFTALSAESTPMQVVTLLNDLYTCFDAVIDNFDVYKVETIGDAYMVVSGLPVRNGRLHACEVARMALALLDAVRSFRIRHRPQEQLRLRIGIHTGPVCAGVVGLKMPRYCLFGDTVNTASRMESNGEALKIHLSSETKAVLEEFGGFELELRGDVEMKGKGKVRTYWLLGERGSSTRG

B1: TPP-12377: CNP engrafted antibody; heavy chain SEQ ID NO 445, light chain SEQ ID NO 66 (antibody, listed as Homo sapiens)
heavy: EVQLLESGGGLVQPGGSLRLSCAASGFTFSSYAMSWVRQAPGKGLEWVSAISGSGGSTYYADSVKGRFTISRDNSKNTLYLQMNSLRAEDTAVYYCTSVHQETKKYQSSPYKGANKKGLSKGCFGLKLDRIGSMSGLGCGSGGSGSYSYTYNYEWHVDVWGQGTLVTVSS[letters of human IgG1 constant region left out]
light: QSVLTQPPSVSGAPGQRVTISCTGSSSNIGAGYDVHWYQQLPGTAPKLLIYGNSNRPSGVPDRFSGSKSGTSASLAITGLQAEDEADYYCQSYDSSLSGVVFGGGTKLTVLGQPKAAPSVTLFPPSSEELQANKATLVCLISDFYPGAVTVAWKADSSPVKAGVETTTPSKQSNNKYAASSYLSLTPEQWKSHRSYSCQVTHEGSTVEKTVAPTECS
modifications: NP engrafted HC
B2: TPP-18034: BNP (Hum28aa) engrafted human IgG1 antibody construct, CDRH3 (antibody, listed as Homo sapiens)
heavy: [letters of about 100 residues left out]GITGTKKYQSSPDGGSGGMVQGSGCFGRKMDRISSSSGLGCKVLRRGSYSYTYNYAEYFQHWGQGTLVTVSS[letters of human IgG1 constant region left out]
light: QSVLTQPPSVSGAPGQRVTISCTGSSSNIGAGYDVHWYQQLPGTAPKLLIYGNSNRPSGVPDRFSGSKSGTSASLAITGLQAEDEADYYCQSYDSSLSGVVFGGGTKLTVLGQPKAAPSVTLFPPSSEELQANKATLVCLISDFYPGAVTVAWKADSSPVKAGVETTTPSKQSNNKYAASSYLSLTPEQWKSHRSYSCQVTHEGSTVEKTVAPTECS
modifications: NP engrafted HC
notes: BNP (Hum28aa) engrafted human IgG1 antibody construct, CDRH3

Key:
[1] = target: T3, neutral endopeptidase (NEP) (Homo sapiens, UniProt P08473); assay: Sensitivity towards proteolytic degradation by NEP (activity on receptor cell line after incubation); assay type: in vitro ADME; settings: 4 hours, 37° C., 0.6 μg/ml NEP
T3 construct: purchased R&D Systems 1182-ZNC

[2] = target: T1, insulin degrading enzyme (IDE); assay: Sensitivity towards proteolytic degradation by IDE (activity on receptor cell line after incubation); assay type: in vitro ADME; settings: 4 hours, 37° C., 0.6 μg/ml IDE
[3] = target: T2, human NPRA (hNPRA); assay: cGMP quantification assay (HTRF) on stable hNPRA-CHO k1 cells (rcs, ics, pcs samples); assay type: cell-based; settings: BNP engrafted antibody constructs; purified compound samples (pcs), dilution series in quadruplets, stable hNPRA-CHO k1 cells
Protocol: All activities shown in Tables 7 and 8 were measured on cells with heterologous over expression of human NPRA (hNPRA) by use of a cGMP quantification assay conducted according to manufacturer's instructions (cisbio; 62GM2PEH). In brief, the assay quantifies cGMP in buffered solution or cell-culture supernatants based on the competition between cGMP produced by the cell as result of the NPRA stimulation through the (natriuretic peptide) sample and d2 labelled cGMP for binding to a Cryptate labelled antibody. Sample cGMP and d2 labeled cGMP compete for binding to a limited number of sites on Cryptate labeled anti-cGMP antibodies, and consequently, HTRF® specific fluorescent signal (i.e. energy transfer) is inversely proportional to the concentration of cGMP in the sample.
Dose-response curve data were analyzed with GraphPad Prism (version 7.00 for Windows, GraphPad Software, La Jolla California USA) and EC50 were fitted according to Y=Bottom+(Top-Bottom)/(1+10∧((Log EC50-X)*HillSlope)) applying constraints for bottom, top and slope (shared value for all data sets of the respective experiment).
The raw compound sample activity on stable hNPRA-CHO k1 cells was first assessed by comparison to the negative control TPP-5657 and to a positive sample, in particular TPP-5661. Controls and res were tested in quadruplets in two concentrations with a relative dilution factor of 5 aiming for a fluorescent signal (s) in the dynamic range of the assay. […] Values listed in Table 7, columns “activity res” and “stdev activity res”, represent the average of the results for the two concentrations and the respective standard deviation. Res signals less than half of the signal of the reference compound TPP-5661 (36%) were assessed as not active (n.a.).
The activity of several raw compound samples on stable hNPRA-CHO k1 cells was reassessed by comparison to reference sample TPP-5661 in 2.5-fold dilution series (8 concentrations) starting with a 5-fold dilution. The “log EC50” fit value as activity measure of the res was set in relation to the corresponding value of the reference res TPP-5661 by calculating the delta “log EC50” _compound −“log EC50” _TPP-5661; resulting values are listed in Table 7, column “rel. activity res”. […] All samples were applied in quadruplets.
The activity of isolated compound samples on stable hNPRA-CHO k1 cells was assessed by EC50 determination and comparison to reference sample TPP-5661. Samples were tested in 2.5-fold dilution series from 80 nM to 0.13 nM. The log EC50 fit value as activity measure of the ics was set in relation to the corresponding value of the reference ics TPP-5661 (−8.8) by calculating the delta log EC50_compound−log EC50_TPP-5661; resulting values are listed in Table 7, column “rel. log EC50 ics”. All samples were applied in quadruplets.
The activity of purified compound samples on stable hNPRA-CHO k1 cells was assessed in multiple experiments by EC50 determination and comparison to reference sample TPP-5661. Samples were tested in dilution series at least in quadruplets. […] The log EC50 fit value as activity measure of the pcs was set in relation to the corresponding value of the reference TPP-5661 in the respective experiment (in average −9.2, standard deviation 0.5) by calculating the delta log EC50_compound−log EC50_TPP-5661.

T3 sequence (P08473 whole entry): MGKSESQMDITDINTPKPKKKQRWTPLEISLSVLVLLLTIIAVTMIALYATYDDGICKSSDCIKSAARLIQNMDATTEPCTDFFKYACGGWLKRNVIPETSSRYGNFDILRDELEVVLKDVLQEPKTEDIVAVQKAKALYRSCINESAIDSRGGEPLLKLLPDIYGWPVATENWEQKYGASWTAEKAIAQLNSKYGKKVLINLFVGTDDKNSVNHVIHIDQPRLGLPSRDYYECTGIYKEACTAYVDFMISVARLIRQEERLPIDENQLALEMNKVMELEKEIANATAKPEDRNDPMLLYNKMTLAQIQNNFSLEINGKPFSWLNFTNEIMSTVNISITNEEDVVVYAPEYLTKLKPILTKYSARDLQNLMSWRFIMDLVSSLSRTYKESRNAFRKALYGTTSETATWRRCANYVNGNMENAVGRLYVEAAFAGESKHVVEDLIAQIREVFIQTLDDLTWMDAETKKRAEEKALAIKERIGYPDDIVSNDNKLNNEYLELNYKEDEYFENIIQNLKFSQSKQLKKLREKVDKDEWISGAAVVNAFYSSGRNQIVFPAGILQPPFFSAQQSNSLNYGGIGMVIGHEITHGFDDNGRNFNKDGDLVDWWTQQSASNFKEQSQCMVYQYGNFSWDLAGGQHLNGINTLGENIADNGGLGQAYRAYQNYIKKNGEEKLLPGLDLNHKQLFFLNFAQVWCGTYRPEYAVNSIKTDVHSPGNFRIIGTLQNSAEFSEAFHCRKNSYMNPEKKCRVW

Row | Molecule | sensitivity/resistance to proteolytic degradation by NEP [1] | sensitivity/resistance to proteolytic degradation by IDE [2] | qualit. activity on hNPRA [3]
1 | B1 | high resistance | high resistance | –
2 | B2 | – | – | ++ (relative log EC50<0.7 were assessed as very active)
